Over roughly 16,000 sequences, “Z-score” has its median near -0.37; the highest 2% begin near 3.1. Some of the results follow.

In this experiment the test system is RBM10 RRM1-ZnF-RRM2 (GST-tagged construct). As to the kind of experiment: RNAcompete 7-mer binding Z-score; higher = stronger binding preference. How it is done:
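RNAcompete: 20 pmol GST-tagged RBM10 RNA-binding constructs were incubated with a designed RNA pool of about 241,000 sequences up to 41 nt (1.5 nmol) on glutathione beads for 30 min at 4 °C and washed. Bound RNAs were identified by microarray hybridisation. Each RNA 7-mer is scored by a one-sided Z-score of its enrichment, computed over probes that contain the 7-mer within longer pool sequences.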
For UCACCUU, the “RNAcompete 7-mer binding Z-score” value is -0.945.
For GAGAAAU, the “RNAcompete 7-mer binding Z-score” value is 0.41.
The value for GCCGUUU was -0.901; that for CGACCAG was -0.216; that for GGUGCCC was 0.0495.
The value for CUGACCA was -0.632; that for UUCGGAC was -0.289.
The result for AGAAAGG reads 4.73.
Turning to GUAAGGG, the “RNAcompete 7-mer binding Z-score” value was 3.65.
The value for GGUUUGU was 0.811; that for CGGCAAG was 0.497; that for AGACAGU was -0.158.
The value for ACCCGGA was -0.551; that for CCGAUGC was -0.701.
For UUUGAGG, the “RNAcompete 7-mer binding Z-score” value was 0.352.
The value for UUCGGGA was 0.734; that for AACGACA was -0.253.
With UCGUUUU, the “RNAcompete 7-mer binding Z-score” value is -0.508.
For AAAUGUC, the “RNAcompete 7-mer binding Z-score” value was -0.533.
The value for CAAAGAC was -0.227; that for CCGAGUG was 0.0167; that for GCCGGGC was -0.195.
The value for GGCGGUU was 1.23.
Regarding UUUGGCA, the “RNAcompete 7-mer binding Z-score” value is -0.264.
With AGUACGU, the “RNAcompete 7-mer binding Z-score” value is -0.0233.
The result for UGCAGGC reads 0.596; that for GGUAGAG, 3.68.
The result for GUAGUCC reads -0.402.
As to CCCUCUU, the “RNAcompete 7-mer binding Z-score” value was -0.89.
The value for UAGGUGC was 1.12; that for UUCGGUC was -0.446.
Take GUUGGUC: the “RNAcompete 7-mer binding Z-score” value was found to be 0.308.
The result for UUCGGUU reads -0.129.
The value for GACGUAC was -0.26; that for ACUGAGC was -0.122.
The result for UAGGCUG reads 0.523.
Take UUGGGCG: the “RNAcompete 7-mer binding Z-score” value came to 2.45.
As to GAGUCAU, the “RNAcompete 7-mer binding Z-score” value was -0.0561.
The value for UGGGCGG was 3.38; that for AGCAGCA was -0.0962.
Turning to UUGAAGG, the “RNAcompete 7-mer binding Z-score” value is 1.9.
As to AUGGUGU, the “RNAcompete 7-mer binding Z-score” value is 1.97.
The value for UCAGUUG was -0.315.
As for CACUGCC, the “RNAcompete 7-mer binding Z-score” value was -0.595.
The value for GUUCCCU was -0.664; that for GUGAUAC was 0.275.
Take AUAAGGC: the “RNAcompete 7-mer binding Z-score” value turned out to be 0.854.
The value for ACUAUCC was -0.905; that for CGUAAUC was -0.511.
The value for GUAAACA was 0.374.
With CGCCUGC, the “RNAcompete 7-mer binding Z-score” value was -0.595.
With CCUAAGC, the “RNAcompete 7-mer binding Z-score” value is -0.901.
The value for GCCAACG was 0.0896; that for GUGGAUG was 2.35.
On to GUAAUUA, for which the “RNAcompete 7-mer binding Z-score” value is -0.351.
The value for AGUCGUC was -0.125.
The value for GGGAUCC was 1.24; that for AGGAUAG was 2.21.
In the case of AGCACGU, the “RNAcompete 7-mer binding Z-score” value was -0.176.
On to UGAUUUC, for which the “RNAcompete 7-mer binding Z-score” value is -0.836.
As to GAUGGAC, the “RNAcompete 7-mer binding Z-score” value was 1.76.
As to GUGCCUG, the “RNAcompete 7-mer binding Z-score” value is -0.26.
The result for CGCCGAC reads -0.734.
The value for AGCACAA was -0.322; that for UAUGAUA was -0.326; that for AAUGCUC was -0.81.
The value for CUUCGUU was -0.836.
Regarding GUUUCGG, the “RNAcompete 7-mer binding Z-score” value was determined as 0.567.
The value for GAAACGC was -0.315; that for ACGCCAG was -0.431.
Turning to CAACGUA, the “RNAcompete 7-mer binding Z-score” value was -0.38.
For CGAUACA, the “RNAcompete 7-mer binding Z-score” value is -0.0561.
Take GGCUGGU: the “RNAcompete 7-mer binding Z-score” value amounted to 0.822.
The result for CCUUUGC reads -0.974.
The result for UCUUGAG reads -0.606; that for CUCAAGG, 0.304; that for CGUGGAU, 1.
The result for GCCUUCA reads -0.854; that for CGCGUGC, -0.0853.
Regarding AAUAGAU, the “RNAcompete 7-mer binding Z-score” value came to 0.283.
As for UUCCACG, the “RNAcompete 7-mer binding Z-score” value is -0.613.
The result for CUACGAU reads -0.559; that for AAAGUAU, -0.162; that for UUAUUGG, 0.414.
Take AAAAGAU: the “RNAcompete 7-mer binding Z-score” value is -0.256.
Consider UACUGUG, for which the “RNAcompete 7-mer binding Z-score” value is -0.289.
The value for ACGCGCU was -0.551; that for UAACUAA was -0.49; that for CUCGUUA was -0.734.
As to CCACAUG, the “RNAcompete 7-mer binding Z-score” value is -0.3.
The value for CACUGGC was -0.439; that for UCGGACG was 0.144.
As to UACGCUU, the “RNAcompete 7-mer binding Z-score” value was -0.726.
Consider CGGACUG, for which the “RNAcompete 7-mer binding Z-score” value amounted to 0.13.
The result for CUUUCGU reads -0.81.
The value for UAGAGAA was 0.501; that for UAAGCCG was -0.42.
The result for AUUUCUA reads -0.77; that for AUGUGAU, 0.0532; that for GAAAGAU, 0.359.
